# In the supplement of paper PMC8728848:
# This is one part of the list.
# B1: Na-CTL-1 (Necator americanus) (protein)
# chain: MQRSFLLLLVVLAGAWAVNTTIPLKLMGGFTPMKYQCVGRVSDIWADVLFLIESSDMITKSGFRQVIAFITATTKKMTIGQDEKQTRVGFITYGEEAKLIYDLDHWRSTEKLSDLVQKIPYVKSSGTNIAAAIALANKVFNSPTHRPNVPKVMVIVANGLKKGSQNPIPVATAFKDFGGIIITIEYTQYDNIQVPILKKIASEGYNIRSNDEDFSVRTLTNMLLQANCFCPDHYVPFRVNNPEFGCFVTAKIPSMWRDAAEMCRAVEEGKLVKVENEEKAAFIMKLVGPKKEAWIGLRYYGNKFQWTDGTKLNADDFNLWPEDIKELNGPHCVSMYQDQKDKKYYWRAGKCLEDMRYVCEVQPCSASNYCSEPVFMYRQKHRALLPAPPPPPN
# Tests used:
# Assay in all cases: glycan array binding signal (z-score within array); higher = stronger binding
# Settings in all cases: glycan notation: IUPAC condensed, linker removed
# [1] = biological target: Neu5Ac(a2-3)Gal(b1-4)GlcNAc(b1-3)Gal(b1-4)GlcNAc(b1-3)Gal(b1-4)GlcNAc
# How it was run: (§1)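 Arrays were curated from the Consortium for Functional Glycomics database, 3228 in total, and kept only where the protein sequence was available. Binding is expressed as a within-array Z-score. This score was averaged across arrays of the same protein sequence at different concentrations or buffers and across linkers, and negative values can be read as non-binding.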
# [2] = biological target: Neu5Ac(a2-3)Gal(b1-4)GlcNAc(b1-3)Gal(b1-4)GlcNAc(b1-3)Gal(b1-4)GlcNAc(b1-2)Man(a1-3)[Neu5Ac(a2-3)Gal(b1-4)GlcNAc(b1-3)Gal(b1-4)GlcNAc(b1-3)Gal(b1-4)GlcNAc(b1-2)Man(a1-6)]GalNAc
# How it was run: as §1
# [3] = biological target: Neu5Ac(a2-3)Gal(b1-4)GlcNAc(b1-3)Gal(b1-4)GlcNAc(b1-3)GalNAc
# How it was run: as §1
# [4] = biological target: Neu5Ac(a2-3)Gal(b1-4)GlcNAc(b1-3)Gal(b1-4)GlcNAc(b1-3)[Neu5Ac(a2-3)Gal(b1-4)GlcNAc(b1-3)Gal(b1-4)GlcNAc(b1-6)]GalNAc
# How it was run: as §1
# [5] = biological target: Neu5Ac(a2-3)Gal(b1-4)GlcNAc(b1-3)Gal(b1-4)GlcNAc(b1-6)[Gal(b1-3)]GalNAc
# How it was run: as §1
# [6] = biological target: Neu5Ac(a2-3)Gal(b1-4)GlcNAc(b1-3)Gal(b1-4)[Fuc(a1-3)]GlcNAc
# How it was run: as §1
# [7] = biological target: Neu5Ac(a2-3)Gal(b1-4)GlcNAc(b1-3)GalNAc
# How it was run: as §1
# [8] = biological target: Neu5Ac(a2-3)Gal(b1-4)GlcNAc(b1-3)[Neu5Ac(a2-3)Gal(b1-4)GlcNAc(b1-6)]GalNAc
# How it was run: as §1
# [9] = biological target: Neu5Ac(a2-3)Gal(b1-4)GlcNAc(b1-6)GalNAc
# How it was run: as §1
# [10] = biological target: Neu5Ac(a2-3)Gal(b1-4)GlcNAc(b1-6)[Gal(b1-3)]GalNAc
# How it was run: as §1
# [11] = biological target: Neu5Ac(a2-3)Gal(b1-4)GlcNAc(b1-6)[Neu5Ac(a2-3)Gal(b1-3)]GalNAc
# How it was run: as §1
# [12] = biological target: Neu5Ac(a2-3)Gal(b1-4)GlcNAc6S
# How it was run: as §1
# [13] = biological target: Neu5Ac(a2-3)Gal(b1-4)[Fuc(a1-3)]GlcNAc
# How it was run: as §1
# [14] = biological target: Neu5Ac(a2-3)Gal(b1-4)[Fuc(a1-3)]GlcNAc(b1-2)Man
# How it was run: as §1
# [15] = biological target: Neu5Ac(a2-3)Gal(b1-4)[Fuc(a1-3)]GlcNAc(b1-3)Gal
# How it was run: as §1
# [16] = biological target: Neu5Ac(a2-3)Gal(b1-4)[Fuc(a1-3)]GlcNAc(b1-3)Gal(b1-4)GlcNAc
# How it was run: as §1
# [17] = biological target: Neu5Ac(a2-3)Gal(b1-4)[Fuc(a1-3)]GlcNAc(b1-3)Gal(b1-4)[Fuc(a1-3)]GlcNAc(b1-3)Gal(b1-4)[Fuc(a1-3)]GlcNAc
# How it was run: as §1
# [18] = biological target: Neu5Ac(a2-3)Gal(b1-4)[Fuc(a1-3)]GlcNAc(b1-3)GalNAc
# How it was run: as §1
# [19] = biological target: Neu5Ac(a2-3)Gal(b1-4)[Fuc(a1-3)]GlcNAc(b1-6)[Gal(b1-3)]GalNAc
# How it was run: as §1
# [20] = biological target: Neu5Ac(a2-3)Gal(b1-4)[Fuc(a1-3)]GlcNAc(b1-6)[Neu5Ac(a2-3)Gal(b1-3)]GalNAc
# How it was run: as §1
# [21] = biological target: Neu5Ac(a2-3)Gal(b1-4)[Fuc(a1-3)]GlcNAc6S
# How it was run: as §1
# [22] = biological target: Neu5Ac(a2-3)Gal6S(b1-4)GlcNAc
# How it was run: as §1
# [23] = biological target: Neu5Ac(a2-3)Gal6S(b1-4)[Fuc(a1-3)]GlcNAc
# How it was run: as §1
# Neu5Ac(a2-3)GalNAc = biological target: Neu5Ac(a2-3)GalNAc
# How it was run: as §1
# [24] = biological target: Neu5Ac(a2-3)GalNAc(b1-4)GlcNAc
# How it was run: as §1
# [25] = biological target: Neu5Ac(a2-3)[GalNAc(b1-4)]Gal(b1-4)Glc
# How it was run: as §1
# [26] = biological target: Neu5Ac(a2-3)[GalNAc(b1-4)]Gal(b1-4)GlcNAc
# How it was run: as §1
# [27] = biological target: Neu5Ac(a2-3)[GalNAc(b1-4)]Gal(b1-4)GlcNAc(b1-3)GalNAc
# How it was run: as §1
# [28] = biological target: Neu5Ac(a2-3)[Neu5Ac(a2-6)]GalNAc
# How it was run: as §1
# Neu5Ac(a2-6)Gal = biological target: Neu5Ac(a2-6)Gal
# How it was run: as §1
# [29] = biological target: Neu5Ac(a2-6)Gal(b1-3)GlcNAc(b1-3)[Gal(b1-4)GlcNAc(b1-6)]Gal(b1-4)Glc
# How it was run: as §1
# Neu5Ac(a2-6)Gal(b1-4)Glc = biological target: Neu5Ac(a2-6)Gal(b1-4)Glc
# How it was run: as §1
# [30] = biological target: Neu5Ac(a2-6)Gal(b1-4)GlcNAc
# How it was run: as §1
# [31] = biological target: Neu5Ac(a2-6)Gal(b1-4)GlcNAc(b1-2)Man
# How it was run: as §1
# [32] = biological target: Neu5Ac(a2-6)Gal(b1-4)GlcNAc(b1-2)Man(a1-3)Man(b1-4)GlcNAc(b1-4)GlcNAc
# How it was run: as §1
# [33] = biological target: Neu5Ac(a2-6)Gal(b1-4)GlcNAc(b1-2)Man(a1-3)[Gal(b1-4)GlcNAc(b1-2)Man(a1-6)]Man(b1-4)GlcNAc(b1-4)GlcNAc
# How it was run: as §1
# [34] = biological target: Neu5Ac(a2-6)Gal(b1-4)GlcNAc(b1-2)Man(a1-3)[GlcNAc(b1-2)Man(a1-6)]Man(b1-4)GlcNAc(b1-4)GlcNAc
# How it was run: as §1
# [35] = biological target: Neu5Ac(a2-6)Gal(b1-4)GlcNAc(b1-2)Man(a1-3)[GlcNAc(b1-4)][Neu5Ac(a2-6)Gal(b1-4)GlcNAc(b1-2)Man(a1-6)]Man(b1-4)GlcNAc(b1-4)GlcNAc
# How it was run: as §1
binder,measurement,setting,value
B1,glycan array binding signal (z-score),[1],-0.448
same,glycan array binding signal (z-score),[2],1.09
same,glycan array binding signal (z-score),[3],-0.265
same,glycan array binding signal (z-score),[4],0.047
same,glycan array binding signal (z-score),[5],-0.69
same,glycan array binding signal (z-score),[6],-0.604
same,glycan array binding signal (z-score),[7],-0.426
same,glycan array binding signal (z-score),[8],-0.528
same,glycan array binding signal (z-score),[9],-0.166
same,glycan array binding signal (z-score),[10],-0.28
same,glycan array binding signal (z-score),[11],-0.065
same,glycan array binding signal (z-score),[12],-0.462
same,glycan array binding signal (z-score),[13],-0.126
same,glycan array binding signal (z-score),[14],-0.602
same,glycan array binding signal (z-score),[15],-0.062
same,glycan array binding signal (z-score),[16],0.392
same,glycan array binding signal (z-score),[17],-0.054
same,glycan array binding signal (z-score),[18],1.51
same,glycan array binding signal (z-score),[19],-0.051
same,glycan array binding signal (z-score),[20],0.402
same,glycan array binding signal (z-score),[21],-0.221
same,glycan array binding signal (z-score),[22],0.046
same,glycan array binding signal (z-score),[23],-0.585
same,glycan array binding signal (z-score),Neu5Ac(a2-3)GalNAc,-0.442
same,glycan array binding signal (z-score),[24],0.55
same,glycan array binding signal (z-score),[25],-0.665
same,glycan array binding signal (z-score),[26],-0.222
same,glycan array binding signal (z-score),[27],-0.27
same,glycan array binding signal (z-score),[28],-0.451
same,glycan array binding signal (z-score),Neu5Ac(a2-6)Gal,1.45
same,glycan array binding signal (z-score),[29],-0.757
same,glycan array binding signal (z-score),Neu5Ac(a2-6)Gal(b1-4)Glc,-0.543
same,glycan array binding signal (z-score),[30],-0.245
same,glycan array binding signal (z-score),[31],-0.485
same,glycan array binding signal (z-score),[32],-0.008
same,glycan array binding signal (z-score),[33],-0.425
same,glycan array binding signal (z-score),[34],-0.454
same,glycan array binding signal (z-score),[35],-0.05
